Measurements from PMC8313811 (Current Research in Structural Biology, 2021).

Biological target: the molecule itself
Assay: cryo-EM structure

B1: M. tuberculosis full-length EspB2-460 (natural protein)
chain: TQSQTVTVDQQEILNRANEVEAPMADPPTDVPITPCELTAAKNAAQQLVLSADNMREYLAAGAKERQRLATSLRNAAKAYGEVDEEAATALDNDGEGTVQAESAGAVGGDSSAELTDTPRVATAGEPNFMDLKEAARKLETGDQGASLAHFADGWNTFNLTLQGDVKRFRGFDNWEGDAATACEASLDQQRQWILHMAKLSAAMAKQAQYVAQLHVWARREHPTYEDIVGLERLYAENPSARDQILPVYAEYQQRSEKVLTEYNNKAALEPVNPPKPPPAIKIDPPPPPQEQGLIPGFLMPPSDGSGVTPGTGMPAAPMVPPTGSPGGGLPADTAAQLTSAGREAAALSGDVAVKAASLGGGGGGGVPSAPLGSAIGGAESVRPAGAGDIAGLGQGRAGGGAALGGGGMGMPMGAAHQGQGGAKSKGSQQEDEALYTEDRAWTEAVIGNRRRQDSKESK
  stoichiometry N: 6 and 7 and 8

Values joined by “and” are separate entries in the source; they are usually repeats but may differ in a detail not shown here. Equal entries are not always repeated.
